Measured values taken from the supplement of paper PMC10338343.
± gives the standard deviation. The entries are a selection whose mix differs from that of the whole data set.

system: MIWI (PIWIL1) piRISC loaded with L1MC piRNA (30 nt); experiment: pre-steady-state target cleavage rate (min^-1); MIWI and MILI are mouse PIWI proteins and EfPiwi is from a freshwater sponge; tags in brackets are library labels; higher = faster piRNA-guided slicing of the target; conditions: guide: L1MC piRNA 5'p-UAACUAAAUACUAUGCAAGCUGUAGGUCCU; auxiliary factor: 500 nM mouse GTSF1
Method in brief: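 Cleave-'n-Seq measured uncleaved targets by sequencing after a transcribed, DNA-blocked target RNA library […] was mixed with 1 nM active affinity-purified piRISC holding one synthetic guide, with or without 500 nM GTSF1 partner protein, at 33 °C in HEPES–potassium acetate buffer for 0–8 or 0–960 min. Counts were normalised to depth and to weakly complementary targets, three trials were pooled, and k3 was capped at 0.0001 min^-1. A burst-and-steady-state fit gave the pre-steady-state cleavage rate.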
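Further: 1 nM active piRISC with 0.1 nM target library at 33 °C single turnover.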

Sequence	pre-steady-state target cleavage rate
UCCACCUACAGCUUGCAUAGUUUAUAGUUA	0.145 ± 0.024
UGGACCUACUGCUUGCAUAGUAUUUAGAAA	0.14 ± 0.014
UCCACCAUGAGCUUGCAUAGUAUUUAGUAA	0.811 ± 0.088
UGGUCCUACACCUUGCAUAGUAUUUAGUUA	0.936 ± 0.042
UGGACCUACAGCUUGCAUAGUAUUUUCAAA [g6:g29:cont:t1A]	0.231 ± 0.035
UCCUGGAACAGCUUGGAUAGUAUUUAGUAA	0.611 ± 0.064
AGGAGGUACAGCUUGCAUAGUAUUUAGAAA	0.324 ± 0.044
UCCUCCUAGAGCUUGCAUAGUAUUUAGUUA	0.719 ± 0.056
UCCUGGAACAGCUAGCUUAGUAUUUAGUUA	0.568 ± 0.034
UCCUGGAUCAGCUUGGAUAGUAAUUAGUUA	0.27 ± 0.023
UCGACCUACAGCUUGCAUACUAUUUAGUAA	0.224 ± 0.023
UCGACCUACAGCUUGGAUUGUAUUUAGUUA	0.681 ± 0.025
UGGACCUACAGCUUGCAUUGUAUUUAGAUA	0.305 ± 0.026
UCCUGGAACAGCUUGCAUACUAUAUAGUUA	0.125 ± 0.017
UCGAGCUACAGCUUGCAUAGUAUUUACAAA	0.303 ± 0.04
UCGACCUACAGCAUGCAUAGUAUUUUGUUA	0.818 ± 0.059
UCCUCCUUCAGCUUGCAUAGUAUUAAGUUA	0.394 ± 0.033
UCCUCCUACAGCUUGCUUAGUAUUUACUUA	0.52 ± 0.04
AGGACCAACAGCUUGCUUAGUAUUUAGUUA	1.31 ± 0.066
UCCUCCUACAGCGUGCAUAGUAUUUAGUUA	1.4 ± 0.042
UCCUGGAACAGCUUGCAAAGUAAUUAGUUA	0.545 ± 0.038
UCCUGGAUGUGCUUGGAUAGUAUAUAGUUA	0.0799 ± 0.017
UCCUGCUACAGCUGGCAUAGUAUUUAGUUA	1.04 ± 0.056
UCGACCUACAGCUUGCAUAGUAUUUAGUUUA	1.27 ± 0.058
